Reference: PMC4336329 (PLoS ONE, 2015)
Hit rate of the full screen: of about 310,000 compounds, about 14,000 (4.5%) showed an effect of 50% or more. Effects have a minus sign here. The list shows a part of the results. Where a SMILES comes first, the peptide text is derived from it. The star is where a group is joined. Bz = O=C(c1ccccc1)*

The compounds below were run against human ether-à-go-go-related gene (hERG) potassium channel (human, UniProt Q12809) (assay: primary screen, population patch clamp on CHO cells stably expressing hERG).
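Note: peak tail current of the secondary pulse compared with the same well before compound.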

Chain of human ether-à-go-go-related gene (hERG) potassium channel (Q12809 whole entry, looked up): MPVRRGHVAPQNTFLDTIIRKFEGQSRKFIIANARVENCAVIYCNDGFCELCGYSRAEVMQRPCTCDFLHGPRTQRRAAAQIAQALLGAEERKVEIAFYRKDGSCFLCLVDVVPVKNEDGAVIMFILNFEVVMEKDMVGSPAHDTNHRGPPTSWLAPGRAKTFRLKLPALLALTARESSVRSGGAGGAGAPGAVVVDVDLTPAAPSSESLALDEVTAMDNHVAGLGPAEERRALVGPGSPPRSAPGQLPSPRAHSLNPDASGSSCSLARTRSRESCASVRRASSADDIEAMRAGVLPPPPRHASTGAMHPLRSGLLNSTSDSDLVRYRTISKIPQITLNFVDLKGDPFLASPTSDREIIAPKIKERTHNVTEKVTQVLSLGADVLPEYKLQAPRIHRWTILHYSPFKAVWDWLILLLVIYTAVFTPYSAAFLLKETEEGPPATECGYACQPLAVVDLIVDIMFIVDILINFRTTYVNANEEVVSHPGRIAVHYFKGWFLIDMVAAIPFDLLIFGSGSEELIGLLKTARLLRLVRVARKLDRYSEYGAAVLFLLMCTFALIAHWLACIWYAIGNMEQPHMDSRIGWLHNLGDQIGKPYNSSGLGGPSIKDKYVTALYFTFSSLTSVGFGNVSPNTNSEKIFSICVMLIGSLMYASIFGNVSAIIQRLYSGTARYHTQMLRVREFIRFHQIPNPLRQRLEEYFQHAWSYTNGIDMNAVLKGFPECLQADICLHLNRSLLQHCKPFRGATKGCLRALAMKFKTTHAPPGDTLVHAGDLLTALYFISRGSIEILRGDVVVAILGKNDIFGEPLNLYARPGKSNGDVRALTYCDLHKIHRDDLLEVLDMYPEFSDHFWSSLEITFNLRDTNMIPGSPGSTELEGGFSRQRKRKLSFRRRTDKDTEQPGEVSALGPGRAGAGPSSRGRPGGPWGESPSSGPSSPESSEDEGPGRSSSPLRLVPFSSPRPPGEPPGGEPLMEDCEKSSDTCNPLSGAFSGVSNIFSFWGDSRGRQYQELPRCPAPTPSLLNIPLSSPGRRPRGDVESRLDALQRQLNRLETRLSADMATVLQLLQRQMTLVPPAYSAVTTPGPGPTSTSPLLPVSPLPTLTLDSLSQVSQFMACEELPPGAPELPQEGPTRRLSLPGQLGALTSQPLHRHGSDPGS

SMILES	hERG current change (%, negative = inhibition) at 10uM [%]
CNC(=S)NNC(=O)c1cccn(Cc2cccc(Cl)c2)c1=O	-14.5
O=C(Nc1nc(-c2ccccn2)cs1)c1ccc(-c2ccccc2F)o1	9.93
O=C(CC1SC(=Nc2ccc(O)cc2)NC1=O)Nc1ccccc1 (stereo not drawn)	2.29
O=C(NC1CCN(Cc2ccccc2)CC1)c1cccc(S(=O)(=O)Nc2ccc(Br)cc2)c1	-59.7
CCCOc1ccc2ccccc2c1/C=C1\SC(=O)NC1=O	9.25
Cc1ccc2c(c1)C(=O)C(=O)N2CCCOc1ccccc1C	-15.9
CN(C)CCOC(=O)C12CC3CC(CC(C3)C1)C2.Cl	10.5
COC(=O)CN=C1OC(=O)N2C(=O)C3=C4[C@@H](C[C@H]5C(=O)N(c6ccccc6)C(=O)[C@H]5[C@H]4[C@@]12Cc1ccccc1)[C@H]1C(=O)N(c2ccccc2)C(=O)[C@H]1[C@H]3C	4.25
COc1ccc(CCn2c(O)c(C=NC3CC3)c(=O)[nH]c2=O)cc1OC	8.67
COCCN(C(=S)Nc1ccc(C)cc1)C(C)c1cccnc1 (stereo not drawn)	-22.9
NC(=O)CN1CCCC1=O	3.5
CCOC(=O)C1=C(C)N=C2SCCC(=O)N2C1c1ccc(C(=O)OC)cc1 (stereo not drawn)	-11.8
O=C(Nc1ccn(Cc2ccc(Cl)cc2)n1)c1ccccc1	-33.1
COc1ccc(N2CCN(C(=O)COc3ccc(Cl)cc3Cl)CC2)cc1	-14.9
CCOC(=O)c1c(C)[nH]c(C(=O)CN2CCOCC2)c1C	-11.4
CC1CN(Cc2nc3ccccc3c(=O)[nH]2)CC(C)O1 (stereo not drawn)	16.6
CC1CCN(c2c([N+](=O)[O-])c(=O)n(-c3ccccc3)c3ccccc23)CC1	7.21
O=C(CN1C(=O)c2ccccc2S1(=O)=O)NC1CCCCC1	5.26
CCC1OC23CCCCC2C(C#N)(C(=N)O3)C1(C#N)C#N (stereo not drawn)	14.9
Cc1ccccc1OCc1nnc(SCC(=O)Nc2ccc3c(c2)OCO3)n1C	-2.99
CC(=O)c1ccc(N(C(=O)CNC(=O)c2cccs2)C(C(=O)NCC2CCCO2)c2ccccc2)cc1 (stereo not drawn)	12.3
COc1ccc(C(=O)NCS(=O)(=O)c2ccc(C)cc2)cc1	-3.85

SMILES	hERG current change (%, negative = inhibition) at 10uM [%]
O=C(CCNC(=O)c1ccccc1Cl)Nc1cccc(S(=O)(=O)N2CCOCC2)c1	0.307
COc1ccc2c(c1)S/C(=C\C(=O)c1ccncc1)N2C	-26.3
O=C(COc1cc(F)ccc1[N+](=O)[O-])N1N=C(c2cccs2)CC1c1ccco1 (stereo not drawn)	-16.4
Cc1ccc(NC(=O)C(C)Sc2nc(-c3ccccc3)cc(=O)[nH]2)cc1 (stereo not drawn)	20.8
Cc1cccnc1NC(=O)CNC(=O)C1CCCCC1	10.5
CCCCCOC(=O)c1ccc(N2C(=O)C3C4C=CC(C4)C3C2=O)cc1 (stereo not drawn)	-6.84
Cc1ccc(Cn2c(SCC(=O)N3CC(=O)Nc4ccccc43)nc3ccccc3c2=O)cc1	11.7
CCOC(=O)Cc1c[nH]c2ccccc12	11.9
Oc1ccc(Cl)cc1N=Cc1sc2ccccc2c1Cl	15.5
Clc1ccc(-c2nnc(SCc3nc4ccccc4s3)o2)cc1	-9.91
Cc1nc2nc(SCC(=O)NCCCN3CCOCC3)nn2c(C)c1Cc1ccccc1	14.6
CC(C)Cc1nc2c(nnn2Cc2ccccc2F)c(=O)[nH]1	-38.9
O=C1N=C(N2CCCCC2)S/C1=C\c1cn[nH]c1-c1ccccc1	0.799
CCCCCN(C(=O)CCC(=O)OC(C)C(=O)c1ccccc1)c1c(N)n(CCCC)c(=O)[nH]c1=O (stereo not drawn)	-12.2
Cn1nc(-c2ccccc2)c(CSc2ccccc2Cl)c1Cl	6.46
O=C(c1ccc(S(=O)(=O)N2CCOCC2)cc1)N1CCN=C1SCc1cccnc1	6.5
Cl.Oc1cccc(Nc2nc(-c3ccccc3Cl)nc3ccccc23)c1	7.09
C/C=C(\C)CN1CCN(c2cccc(C)c2C)CC1	-3.49
O=C(Cn1ccc2ccccc2c1=O)NCC(=O)N1CCN(c2ccccc2F)CC1	26
C=C(c1ccccc1)c1ccc(N(C)C)cc1	13.1
COc1ccc(OC)c(S(=O)(=O)N2CCN(c3ncccn3)CC2)c1	-10.6
O=C(NCCCN1CCCC1=O)NC12CC3CC(CC(C3)C1)C2	10.2

SMILES	hERG current change (%, negative = inhibition) at 10uM [%]
COc1ccc(C(=O)CN2C(=O)COc3ccccc32)cc1	-15
O=C(Nc1nnc(-c2ccc(Br)cc2)o1)c1cccc(N2C(=O)CCC2=O)c1	13.4
O=C(CN1CCc2ccccc21)Nc1ccc2c(c1)OCCCO2	-15.9
O=C(O)c1ccc(S(=O)(=O)N(Cc2ccc(F)cc2)C2CCCCC2)cc1	13.9
Cc1cc(C)cc(C(=O)NCC(=O)OCC(=O)N2CCCCC2)c1	1.04
COc1cccc(CNC(=O)c2ccccc2-c2ccccc2)c1	17.2
CSc1ccccc1N1CCN(C(=O)Nc2ccc3c(c2)NC(=O)CO3)CC1	-56.3
O=C(NC(Cc1ccccc1)C(=O)N1CCCC1C(=O)O)c1ccccc1 (stereo not drawn) (Bz-Phe-Pro-OH; configuration not given here)	9.07
COC(=O)/C(C#N)=C/c1ccc(OC(=O)c2ccccn2)cc1	-6.28
CSc1ccc(S(=O)(=O)Nc2c(C)cccc2C)cc1	3.04
O=C(Nc1ccccc1)c1cc(S(=O)(=O)N2CCOCC2)cs1	-17.5
O=C(O)C(Cc1ccc(Cl)cc1)Sc1nc2ccccc2[nH]1 (stereo not drawn)	20.3
CCOC(=O)Cc1nnc(NC(=O)C(CC)Sc2nnc3c4ccccc4n(C)c3n2)s1 (stereo not drawn)	-11.1
COC(=O)c1nnn(-c2nonc2N)c1CSc1ccc(Cl)cc1	3.92
CSc1ccc(C(c2c(O)c3ccccc3oc2=O)c2c(C)n(C)n(-c3ccccc3)c2=O)cc1 (stereo not drawn)	-12.9
O=C1c2cccc3cccc(c23)C(=O)N1CCN1CCN(C(=S)Nc2ccccc2)CC1	-13.1
Cc1nc(SCc2ccc(Br)cc2)[nH]c(=O)c1C	13.7
Cc1ccc(/C=C/C(=O)Nc2cc(S(=O)(=O)N3CCOCC3)ccc2N2CCOCC2)cc1	-43.2
Clc1ccc(-c2nsc(N3CCOCC3)n2)c(Cl)c1	4.34
COc1cccc(C2(O)CCN(Cc3ccncc3)CC2)c1	7.55
O=C(CN(Cc1ccccc1F)C(=O)Cn1nnc(-c2cccs2)n1)NC1CCCCC1	4.32
COc1ccccc1Cc1nnnn1CC(=O)O	5.77

SMILES	hERG current change (%, negative = inhibition) at 10uM [%]
Cc1cc(N2CCCCC2)nc(SCc2ccc(C#N)cc2)n1	-31.1
O=C(NCCCn1ccnc1)c1cc2c(s1)CCCCC2	-18.5
COc1cc(NC(=S)Nc2ccc3c(c2)OCCO3)cc(OC)c1OC	7.33
N#CC1(c2ccccc2)CCC(NCCc2ccccc2)CC1.O=C(O)C(=O)O (stereo not drawn)	-69.5
CSC1=N/C(=C\c2ccc(F)cc2)C(=O)S1	-5.08
Cc1nc(SCC(=O)NCCc2ccc(Cl)cc2)nc(C)c1C	-9.64
Cc1[nH]nc(-c2ccc(OCc3cnn(-c4ccccc4)c3)c(C)c2O)c1Oc1ccccc1	12
Cn1c(=O)[nH]c(=O)c2c1nc(N1CCCCCC1)n2CCN1CCCCCC1	-30.6
CN1CCN(C(=O)C2CC(c3ccc(F)cc3)=NO2)CC1 (stereo not drawn)	3.31
CC(=O)Nc1ccc(NC(=O)Cn2c(CC(=O)N3CCCC3)nc3ccccc32)cc1	9
CCc1ccc(CN2C(=O)c3ccccc3C2C(=O)NCc2cccnc2)cc1 (stereo not drawn)	-19.5
O=C(Nc1ncc([N+](=O)[O-])s1)C1COc2ccccc2O1 (stereo not drawn)	17.5
Cc1cc(C(C)(C)C)cc(S(=O)(=O)Nc2ccc(C(=O)O)cc2)c1C	12.7
C#CCOC(=O)/C(=C/C=C/c1ccccc1)NC(=O)c1ccccc1	-20
CCOc1cccc(-c2nc(C(N)=O)c3[nH]c(=O)n(-c4cccc(Cl)c4)c3n2)c1O	20.3
CC1CC(C)(C)NC(=S)N1CCC(=O)NCCc1ccc(Cl)cc1 (stereo not drawn)	-24.5
CCOC(=O)c1sc(NS(=O)(=O)c2ccc(F)cc2)nc1C	9.64
O=C(C1CC1)N1CCN(c2ccc(F)cc2)CC1	13
O=C(Nc1nnc(-c2ccccc2)o1)NC1CCCCC1	14.3
COc1ccc(OC)c(S(=O)(=O)N2CCCC(N3CCN(c4ccccc4)CC3)C2)c1 (stereo not drawn)	6.65
Cc1oc(-c2ccccc2Cl)nc1CS(=O)CC(=O)NCc1ccccc1Cl (stereo not drawn)	-12.9
